Hit rate of the full screen: of about 360,000 compounds, about 16,000 (4.4%) were called active. Inconclusive results, whose numbers are uncertain, are shown with a selection of clear calls. Calls come from the whole dose curve; as a rule, active = well fitted inhibition curve with a large enough effect; inconclusive = small, poorly fitted or top-dose-only effect; inactive = no such curve, though single readings can be large or run the other way. A potency beside an inconclusive call is a rough fit, not a confirmed value.
Target: Bromodomain adjacent to zinc finger domain protein 2B (Homo sapiens) (UniProt Q9UIF8)
Test: qHTS Assay for Inhibitors of BAZ2B; note: nearly all actives have a fitted effect of over 60% in size
Conditions: AlphaScreen BAZ2B-H3K14Ac peptide displacement; series mostly up to 114 µM
How it was run: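 AlphaScreen displacement of biotin-H3(5-23)K14Ac peptide (50 nM final) from BAZ2B (50 nM final) in PBS pH 7.4, 0.01% Tween-20; complex preformed 30 min RT, then compounds (top 110 uM) 30 min RT, beads 20 min dark.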
Potency is the fitted concentration of half-maximal effect; tags give direction and shape of the fitted curve.

UniProt Q9UIF8, sequence (Q9UIF8 whole entry, looked up, the tested form may be a part): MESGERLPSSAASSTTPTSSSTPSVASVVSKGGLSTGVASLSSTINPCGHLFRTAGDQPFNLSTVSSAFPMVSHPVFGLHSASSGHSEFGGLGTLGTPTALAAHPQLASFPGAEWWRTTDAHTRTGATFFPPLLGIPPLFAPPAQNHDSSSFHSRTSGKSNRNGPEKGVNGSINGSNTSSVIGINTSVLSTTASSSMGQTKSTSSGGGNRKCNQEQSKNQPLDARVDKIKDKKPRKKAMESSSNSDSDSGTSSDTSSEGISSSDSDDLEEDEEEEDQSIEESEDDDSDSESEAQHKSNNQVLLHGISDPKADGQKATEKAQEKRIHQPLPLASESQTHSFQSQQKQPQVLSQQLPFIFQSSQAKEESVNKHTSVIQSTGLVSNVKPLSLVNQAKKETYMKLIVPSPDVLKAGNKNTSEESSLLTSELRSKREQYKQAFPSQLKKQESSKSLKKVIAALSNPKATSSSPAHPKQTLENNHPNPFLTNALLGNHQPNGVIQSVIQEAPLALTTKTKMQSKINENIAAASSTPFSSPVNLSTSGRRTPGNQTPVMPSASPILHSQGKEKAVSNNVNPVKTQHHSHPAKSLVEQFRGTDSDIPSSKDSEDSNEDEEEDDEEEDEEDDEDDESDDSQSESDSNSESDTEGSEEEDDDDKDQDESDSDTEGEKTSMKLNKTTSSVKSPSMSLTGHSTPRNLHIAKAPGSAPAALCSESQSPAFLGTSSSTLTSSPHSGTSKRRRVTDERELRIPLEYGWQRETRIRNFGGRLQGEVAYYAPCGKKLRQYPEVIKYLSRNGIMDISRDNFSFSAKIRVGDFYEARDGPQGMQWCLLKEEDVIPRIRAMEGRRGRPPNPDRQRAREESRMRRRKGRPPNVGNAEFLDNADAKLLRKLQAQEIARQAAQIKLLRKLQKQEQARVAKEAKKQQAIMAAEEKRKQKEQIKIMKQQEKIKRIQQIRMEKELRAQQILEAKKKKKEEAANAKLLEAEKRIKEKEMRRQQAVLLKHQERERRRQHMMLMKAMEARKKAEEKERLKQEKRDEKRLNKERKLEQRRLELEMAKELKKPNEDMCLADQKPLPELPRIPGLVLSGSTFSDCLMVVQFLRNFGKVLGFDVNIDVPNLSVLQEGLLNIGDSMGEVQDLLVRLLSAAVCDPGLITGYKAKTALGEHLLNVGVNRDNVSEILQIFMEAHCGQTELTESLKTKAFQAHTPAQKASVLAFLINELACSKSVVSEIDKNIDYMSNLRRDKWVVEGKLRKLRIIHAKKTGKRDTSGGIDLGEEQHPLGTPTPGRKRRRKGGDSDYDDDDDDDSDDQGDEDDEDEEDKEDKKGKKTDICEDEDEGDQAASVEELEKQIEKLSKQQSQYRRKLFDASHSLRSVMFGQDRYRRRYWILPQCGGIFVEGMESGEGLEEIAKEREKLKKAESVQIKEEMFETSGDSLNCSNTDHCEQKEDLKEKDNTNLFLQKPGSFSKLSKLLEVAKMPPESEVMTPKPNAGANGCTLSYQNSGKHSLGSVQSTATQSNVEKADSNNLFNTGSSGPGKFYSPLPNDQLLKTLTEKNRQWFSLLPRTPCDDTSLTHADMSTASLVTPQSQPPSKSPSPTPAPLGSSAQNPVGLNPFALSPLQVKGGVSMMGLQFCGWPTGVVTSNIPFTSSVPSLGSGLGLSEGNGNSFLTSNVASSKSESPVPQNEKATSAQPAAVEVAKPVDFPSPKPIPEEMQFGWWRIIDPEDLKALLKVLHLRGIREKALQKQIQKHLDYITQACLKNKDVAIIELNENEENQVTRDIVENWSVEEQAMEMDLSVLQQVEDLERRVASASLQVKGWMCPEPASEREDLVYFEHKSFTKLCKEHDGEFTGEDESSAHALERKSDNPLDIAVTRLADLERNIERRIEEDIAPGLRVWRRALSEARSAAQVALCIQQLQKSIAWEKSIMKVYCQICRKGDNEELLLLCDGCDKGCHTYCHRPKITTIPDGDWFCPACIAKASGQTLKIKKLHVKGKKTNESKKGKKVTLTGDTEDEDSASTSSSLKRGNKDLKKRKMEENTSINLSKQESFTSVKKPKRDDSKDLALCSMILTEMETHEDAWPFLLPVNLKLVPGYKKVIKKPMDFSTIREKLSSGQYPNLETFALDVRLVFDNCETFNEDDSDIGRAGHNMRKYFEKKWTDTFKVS

Structure (SMILES) | Potency
Cc1cc(OCC(=O)Nc2ccc(S(=O)(=O)N3CCN(C)CC3)cc2)cc(C)c1Cl | active: 50.1 µM
CC1CCN(C(=O)CSCC(=O)O)CC1 | inconclusive: 79.4 µM [inhibitor, single point]
Cc1nc(C(Cl)(Cl)Cl)nc2[nH]ccc(=O)c12 | inactive
O=C(NNC(=S)Nc1ccccc1Cl)c1ccccc1Br | inactive
CCOC(=O)c1sc(N=NC2=C(O)CCCC2=O)c(C(=O)OCC)c1C | active: 12.6 µM
CCOc1ccccc1NC(=O)Cn1c(=O)n(CCC(C)C)c(=O)c2cccnc21 | inactive
COc1ccc(C2CC(=O)N(C)c3ccccc3S2)cc1 (stereo unspecified) | inactive
CC1=C(C)C(C)=C(C#N)C(=C(C#N)C#N)N1 | inconclusive: 56.2 µM [inhibitor, partial curve]
O=C(CC12CC3CC(CC(C3)C1)C2)NC(=S)Nc1ccc(CN2CCOCC2)cc1 | inconclusive: 39.8 µM [inhibitor, partial curve]
CSc1ncccc1C(=O)OCC(=O)c1cc(C)n(CC2CCCO2)c1C (stereo unspecified) | inactive
CCc1nn(C(C)C(=O)NCCN2CCN(c3cccc(C)c3C)CC2)c(=O)c2cc3occc3n12 (stereo unspecified) | inconclusive: 89.1 µM [inhibitor, single point]
O=C(COc1ccc(F)cc1)Nc1nc2c(s1)CCCC2 | inconclusive: 79.4 µM [inhibitor, single point]
O=C(O)CC1(CC(=O)NCc2cc(F)cc3c2OCOC3)CCCCC1 | inconclusive: 100 µM [inhibitor, partial curve]
COCc1ccc(C(=O)NCC2(N3CCCCC3)CCCCC2)cc1 | active: 79.4 µM
COc1cccc(/C=C/C(=O)c2cccc([N+](=O)[O-])c2)c1OC | inconclusive: 25.1 µM [inhibitor, full curve]
CCCCCCn1c(COc2ccccc2F)nnc1SCC(=O)N1c2ccccc2NC(=O)C1(C)C | inconclusive: 100 µM [inhibitor, single point]
O=C(Nc1ccc(-n2cnnn2)cc1)C1CCCCC1 | inconclusive: 6.31 µM [inhibitor, full curve]
c1ccc(-c2ccc(-c3cnc4n3CCCCC4)cc2)cc1 | active: 50.1 µM
O=C(O)c1cccc(-c2ccc3c(c2)OCO3)c1 | inactive
COc1ccc(-n2ncc3c2CC(C)(C)CC3NC(=O)c2ccc(OC)o2)cc1 (stereo unspecified) | inconclusive: 25.1 µM [inhibitor, single point]
O=C(O)c1cc2nc3c(c(C(F)(F)F)n2n1)CCc1ccccc1-3 | inconclusive: 100 µM [inhibitor, single point]

From PubChem BioAssay AID504333 (National Center for Advancing Translational Sciences (NCATS), 2011)
